Assay results: article PMC12040169 (PLOS Biology, 2025)
This is one part of the list.

What follows are molecules tested on T1, C. trachomatis L2/434/Bu expressing GFP (CTL2-GFP). Details: total inclusion area; 28.5 h, 10 µM; inhibitor.
T1 construct: L2/434/Bu GFP intracellular growth in HeLa cells
Parameters: species or system HeLa; C. trachomatis total inclusion area by high-content imaging, normalised to DMSO
Summary of the method: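 Post-fluorescence-read fixation, DNA staining with Hoechst and high-content imaging; GFP inclusion area and number per well, and nuclei counts, used as proxies for bacterial growth and host viability.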

SMILES | % of control remaining
CC(=O)Nc1ccc(NC(=O)COc2c(C)cc(Br)cc2C)cc1 [CBK267321] | 110.57
COC(=O)[C@H]1CN(C(=O)CN2CCCC2=O)C[C@@H]1c1ccccc1F [CBK283518] | 113.759
O=C(O)c1ccc2c(c1)C(=O)N(c1ccc(C3(c4ccc(N5C(=O)c6ccc(C(=O)O)cc6C5=O)cc4)c4ccccc4-c4ccccc43)cc1)C2=O [CBK261195] | 90.5261
CCn1c(SCC(=O)NC(=O)NC2CCCCC2)nc2ccccc21 [CBK306037] | 99.9258
c1csc(-c2cncc(NCCc3ccncc3)n2)c1 [CBK065797] | 98.6988
CCn1cc(NC(=O)CC(C)(O)c2ccccc2)ccc1=O (stereo not shown) [CBK304507] | 25.3599
O=C(O)CN(c1ccc([N+](=O)[O-])cc1)S(=O)(=O)c1ccccc1 [CBK263782] | 97.9272
COCC(O)CN(C)c1nc(-c2ccncc2)nc2ccccc12 (stereo not shown) [CBK305170] | 72.3703
CC(=O)N1CCN([C@H]2[C@@H]3OC[C@@H](O3)[C@@H](NC(=O)NC3CCCCC3)[C@@H]2O)CC1 [CBK288810] | 118.922
CC(C)c1nnc(NC(=O)CC2CCN(C(=O)C3(c4ccccc4)CCCC3)CC2)s1 [CBK285905] | 103.356
COC(=O)c1cccc(OCCn2c(=O)c(C#N)cn(C3CC3)c2=O)c1 [CBK305990] | 89.3216
O=C(Nc1cc(Oc2ccc(F)cc2)cc(Oc2cccnc2)c1)c1nn2c(C(F)(F)F)cc(-c3cccs3)nc2c1Cl [CBK262568] | 111.816
CCC1Oc2ccc(C(O)c3ccco3)cc2N(Cc2cccc(OC)c2)C1=O (stereo not shown) [CBK286190] | 106.39
OCCN(CCO)c1nccnc1-c1ccccc1F [CBK036610] | 118.444
Cc1cccc(NC(=O)C(Cc2ccccc2)C(=O)Nc2cccc(C)c2)c1 [CBK266899] | 106.543
Cc1nc2ccccc2c(C(=O)O)c1-c1ccccc1 [CBK274187] | 95.2421
COc1ccc(-c2cn[nH]c2-c2ccc(OCCN3CCOCC3)cc2O)cc1 [CBK288112] | 105.057
CCc1nn(CC(=O)N(CC)CC)c(=O)c2cc3sccc3n12 [CBK284054] | 87.1827
FC(F)(F)c1cccc(SCc2ccc(Cl)cc2)n1 [CBK107197] | 77.8302
COCCNc1cc(-c2cccc(F)c2C(N)=O)c2cc[nH]c2n1 [CBK307682] | 71.9132
CN(C)C(=O)CO[C@@H]1CO[C@H]2[C@@H]1OC[C@@H]2Nc1nccc(-c2cccc(F)c2)n1 [CBK289533] | 89.3832
Oc1ccc(Oc2ccc(Oc3ccc(O)cc3)cc2)cc1 [CBK033968] | 94.4372
CC1(C)CC(CC(=O)NN)(c2ccccc2)CCO1 (stereo not shown) [CBK261358C] | 97.6291
Cc1ccc(S(=O)(=O)NCC(=O)Nc2cnc(-c3cccc(C)c3)c(-c3ccc(N)cc3)n2)cc1 [CBK037600] | 105.877
O=C(CCc1ccc(S(=O)(=O)NC2CC2)cc1)N1CCCC1c1ccncc1 (stereo not shown) [CBK296673] | 101.694
CCCCc1c(O)nc(SCC(=O)NCC2CCCO2)[nH]c1=O (stereo not shown) [CBK073281] | 88.4276
COc1ccc(C(=O)Nc2noc3nc(C)ccc23)cc1OC [CBK287832] | 96.9461

SMILES | % of control remaining
CCCCNc1cc(N2CCOC(c3cnn(CC)c3)C2)nc(N)n1 (stereo not shown) [CBK305423] | 110.004
NC(=O)N/N=C/COc1cccc(C(F)(F)F)c1 [CBK022736] | 66.9072
CCNC(=O)C1(Cc2ccccc2-c2cccnc2)CCOCC1 [CBK285218] | 79.8475
OCc1ccc(-c2nccnc2NCC2CC2)cc1 [CBK037334] | 121.563
Nc1ncc(-c2cncnc2)nc1NCc1ccccc1 [CBK063584] | 92.7609
COCCNC(=O)Nc1ccc2nc(-c3ccccn3)c(-c3ccccn3)nc2c1 [CBK265151] | 100.212
CN1CCN(C)C(COc2ncccc2C(F)(F)F)C1 (stereo not shown) [CBK113458] | 102.891
Cc1ccc(OCCn2c(SCCC(=O)O)nc3ccccc32)cc1 [CBK262561] | 109.733
Nc1nc(OCc2ccncc2)cnc1-c1ccc(OC(F)(F)F)cc1 [CBK145121] | 95.9721
O=C(NCCCn1cccn1)N1CCCN(Cc2ccc(Cl)cc2)CC1 [CBK305447] | 58.5869
COc1cccc(CC(=O)Nc2nc(Cc3n[nH]c(=S)n3C)cs2)c1 [CBK296634] | 86.2035
CC(=O)Nc1ccc(-c2ccc(C(=O)NCCc3ccc(O)cc3)cn2)cc1 [CBK158840] | 89.6386
CCOc1ccccc1Cn1c2ccccc2c2nc3ccccc3nc21 [CBK266323] | 105.905
Cc1ccc(CNC(Cc2c[nH]c3ccccc23)C(=O)O)cc1 (stereo not shown) [CBK287145] | 108.809
Cc1c(C(=O)N2CC(n3cc(C(C)O)nn3)C2)sc2ccc(F)cc12 (stereo not shown) [CBK305446] | 69.2695
N#CCCNS(=O)(=O)c1ccc(OC(F)(F)F)cc1 [CBK043560] | 93.2729
Cc1cc(C(=O)N2CCC(Oc3nccn(Cc4ccc(S(C)(=O)=O)cc4)c3=O)CC2)ccc1Cl [CBK161883] | 41.4232
O=C(Cc1c[nH]cn1)N1CCC2(CCN(Cc3ccccc3)C2)C1 (stereo not shown) [CBK137147] | 125.707
O=CN1CCc2c([nH]c3ccc(F)cc23)C12CCN(Cc1cccc(Oc3ccc(F)cc3)c1)CC2 [CBK040388] | 103.338
Cc1ncsc1C(=O)N1CCCCC1c1nc2ccccc2[nH]1 (stereo not shown) [CBK283531] | 80.9995
CCCC/C=C/c1cnc(N)c(-c2ccc(CCC(=O)O)cc2)n1 [CBK064127] | 132.534
COc1ccc(OC(=O)c2cccc(F)c2)c(C(C)=O)c1 [CBK088044] | 95.6406
CS(=O)(=O)N1CCC(C(=O)NC(c2ccccc2)c2cnccn2)CC1 (stereo not shown) [CBK059901] | 99.3068
CC(=O)Nc1cccc(-c2ccc(Nc3cccnc3)nc2)c1 [CBK037703] | 135.062
CS(=O)(=O)N1CC2(CCN(CCc3ccc(F)cc3)CC2)c2ccccc21 [CBK084103] | 97.2991
O=C(c1ccc(-c2ccoc2)nc1)N1CCCC1 [CBK156284] | 101.473
Cc1ccc2nc(-c3ccncc3)cc(C(=O)Nc3ccc(C(F)(F)F)cc3)c2c1 [CBK267732] | 91.9854

SMILES | % of control remaining
O=c1c2c3c(sc2nc(SCc2nc4ccccc4[nH]2)n1Cc1ccco1)CCC3 [CBK268306] | 87.4197
Oc1nc(O)c2c3c(n(CCn4ccnc4)c2n1)CCCC3 [CBK024380B] | 75.2899
Cc1nn(C)cc1S(=O)(=O)N1CCCC(c2cccc(Cc3ccc(Cl)cc3)n2)C1 (stereo not shown) [CBK286506] | 60.5472
COc1ccccc1CNc1ncnc2[nH]ncc12 [CBK288100] | 58.6112
CCCCOc1ccc(Oc2ncc(C(F)(F)F)cc2Cl)cc1 [CBK161629] | 110.48
C(=N\c1cccc2c(/N=C/c3c[nH]c4ccccc34)cccc12)/c1c[nH]c2ccccc12 [CBK260887] | 85.0889
COc1ccc2[nH]cc(CCNC(=O)c3ccccn3)c2c1 [CBK115866] | 103.343
COCc1cccc(Nc2ncnc3c2cnn3CCC#N)c1 [CBK305983] | 59.8376
Cn1cc(C(=O)CCC(=O)NC2CCCN(c3ncccn3)C2)cn1 (stereo not shown) [CBK305480] | 52.6024
Cc1csc(C(Cc2cccs2)NC(=O)CN2CCCC2=O)n1 (stereo not shown) [CBK284691] | 84.5827
N#CC(NS(=O)(=O)c1ccc(OC(F)(F)F)cc1)c1ccccc1 (stereo not shown) [CBK043714] | 117.949
Nc1nc(C2CC(O)C2)cc(N2CCC(Oc3ccccc3Cl)CC2)n1 (stereo not shown) [CBK307392] | 56.341
O=C(CC1C(=O)N(Cc2ccccc2)C(=S)N1Cc1ccccc1)Nc1ccccc1 (stereo not shown) [CBK263871] | 94.9651
Cc1c(C(=O)N2CCCC(c3cc4ncccc4[nH]3)C2)cnn1C (stereo not shown) [CBK283420] | 110.307
COc1ccccc1CN(C)C(C)C(=O)Nc1sccc1C(N)=O (stereo not shown) [CBK306466] | 62.6314
Cc1nn(C)c(Cl)c1S(=O)(=O)Nc1cccc(-c2cnco2)c1 [CBK067107] | 56.2421
COC(=O)C1CC2CCC1(C)CC21NC(=O)c2ccccc2N1 (stereo not shown) [CBK284440] | 40.4927
Cc1ccccc1OC(C)C(=O)NCCCN1CCOCC1 (stereo not shown) [CBK268628] | 93.3032
COc1ccccc1CNC(=O)CCn1ccc2ccncc21 [CBK282229] | 104.366
c1ccc2nc(N3CCCC3)c(OCc3ccsc3)nc2c1 [CBK115819] | 109.739
COc1ccc(C)cc1S(=O)(=O)n1ccc2c(CN3CCC(N)CC3)cccc21 [CBK113312T] | 11.7813
CCNC(=O)c1ccc(-c2ccc(OC(F)(F)F)cc2)nc1 [CBK156230] | 106.835
O=C(Nc1cccnc1)C1c2ccccc2Oc2ccccc21 [CBK263129] | 102.353
c1ccc(Oc2cccc(OCCCCN3CCNCC3)c2)cc1 [CBK266027G] | 120.226
O=C(COc1ccccc1)Nc1ccc2n(c1=O)C[C@H]1C[C@@H]2CN(C(=O)c2ccccc2)C1 [CBK289079] | 116.341
